Source: PubChem BioAssay AID686979 (National Center for Advancing Translational Sciences (NCATS), 2013)
Screen size: about 420,000 compounds; about 50,000 (12%) were called active. Inconclusive means that the source gave no clear call. Such entries were picked first, then a sample of the others. Calls come from the whole dose curve; as a rule, active = well fitted inhibition curve with a large enough effect; inconclusive = small, poorly fitted or top-dose-only effect; inactive = flat fitted curve, though single readings scatter. No potency is given beside an inconclusive call; the fits are too rough.

Assay: qHTS for Inhibitors of human tyrosyl-DNA phosphodiesterase 1 (TDP1): qHTS in cells in presence of CPT; note: nearly all actives have a fitted effect of over 55% in size
Conditions: chicken DT40 Tdp1-/-;hTDP1 cells + 20 nM CPT, ATP luminescence, 48 h; activity change, negative = growth inhibition: at 46.2 µM (top of the series) unless noted
How it was run: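 Cell growth measured by CellTiter-Glo luminescence after a minimum 48 h, 37 C compound exposure with 20 nM CPT in Tdp1-knockout DT40 cells stably expressing hTDP1, seeded 400/well; qHTS titration format.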
% is set by controls: 0 for no effect and ±100 for the full control effect; potency is the fitted concentration of half-maximal effect; tags give direction and shape of the fitted curve.

Structure (SMILES)	Potency	activity change, negative = growth inhibition
Cc1sc2ncn(-n3c(C)ccc3C)c(=O)c2c1C	inconclusive [inhibitor, single point]	
Cc1cc(=O)[nH]c(N/N=C/c2ccc(C)o2)n1		inactive: -19.3%
CCOc1ccc2c(c1)nc(SCC(=O)c1ccc(Br)s1)n2C	inconclusive [inhibitor, single point]	
O=C(NCc1cccc(C(F)(F)F)c1)C1CC(c2ccccc2F)=NO1 (stereo not given)	inconclusive [inhibitor, single point]	
Cc1ccc(NC(=O)C(Nc2cccc(C)c2)c2ccccc2)cc1 (stereo not given)	inconclusive [inhibitor, single point]	
CCCSc1nc2c(cnn2-c2ccc(Cl)cc2)c(=O)[nH]1	inconclusive [inhibitor, single point]	
CC1Oc2ccccc2N(CC(=O)N2CCCCCC2)C1=O (stereo not given)		inactive: -29.4%
Cc1ccc2nc(SC(Cc3cc(Cl)ccc3Cl)C(=O)O)[nH]c2c1 (stereo not given)	inconclusive [inhibitor, single point]	
CC(C)CC1C(=O)N(Cc2cn(CCC3OCCO3)nn2)CCS(=O)(=O)N1Cc1ccc(-c2cccc(CO)c2)cc1 (stereo not given)	inconclusive [inhibitor, single point]	
Cc1noc(C)c1S(=O)(=O)N1CCC(C(=O)N2CCN(Cc3ccc4c(c3)OCO4)CC2)CC1	inconclusive [inhibitor, partial curve]	
CCOC(=O)[C@H]1[C@H]2COc3ccc(Br)cc3[C@H]2N2C(=O)CN(CCc3c[nH]c4ccccc34)C(=O)[C@@]12C	inconclusive [inhibitor, partial curve]	
COc1ccc(N2CCN(C(=O)c3cc4c(=O)n(Cc5cccs5)ccc4nc3C)CC2)cc1	inconclusive [inhibitor, single point]	
COc1cccc(NC(=O)c2sc3nc(C)c(C(=O)Nc4ccc(C)cc4C)c(-c4ccc(Br)cc4)c3c2N)c1		inconclusive: -32.5% [inhibitor]
COC(=O)N/N=C/c1ccc(-c2cccc(Cl)c2)o1		inactive: 2.84%
Cc1ccc(CCNC(=O)CCSCc2ccccc2F)cc1		inactive: -5.44%
c1ccc2c(-c3nc4ncccc4o3)cccc2c1	inconclusive [inhibitor, single point]	
CC1CCCC(NC(=O)Cc2ccc(Br)cc2)C1C (stereo not given)	inconclusive [inhibitor, single point]	
COC1(c2cc(-c3ccccc3)nc(N)n2)CCCCC1	inconclusive [inhibitor, single point]	
O=C(CSc1nnc(CNc2ccc(F)cc2)o1)OC1CCCCC1	inconclusive [inhibitor, single point]	
COC(=O)Cc1ccc(OC2(C)CCN(Cc3csc4ccccc34)C2)cc1 (stereo not given)	inconclusive [inhibitor, single point]	
CCOC(=O)C1(C)CCCCCN1C(=O)c1csnn1 (stereo not given)		inactive: -13.1%
COc1ccc(Oc2ccc(-c3ccn[nH]3)cc2)cc1		inactive: -24.3%
O=S(=O)(Nc1nc2ccccc2nc1-[n+]1cccc(N=C([O-])c2ccc(Cl)cc2)c1)c1ccccc1	inconclusive [inhibitor, partial curve, poor fit]	

Structure (SMILES)	Potency	activity change, negative = growth inhibition
COc1ccc(OCCCC(=O)ON=C(N)c2ccccc2Cl)cc1		inactive: -2.18%
COc1ccc(OC)c(N(CC(=O)NCC2CCCO2)S(=O)(=O)c2ccccc2)c1 (stereo not given)		inactive: -1.28%
COc1ccc(Br)cc1CN1CCCC(C(=O)N2CCCCCC2)C1 (stereo not given)	inconclusive [inhibitor, single point]	
Cc1ccccc1CNC(=O)C1CCC(=O)N(C2CC2)C1 (stereo not given)		inactive: 10%
Cc1cccc(C(=O)NCc2nc(-c3ccccc3NC(=O)C3CCCO3)oc2C)c1 (stereo not given)		inactive: -6.51% [at 9.04 µM]
COC(=O)C1=C(CSc2nc3c(cc2C#N)CN(C)CC3)OC(N)=C(C#N)C1c1ccccc1F (stereo not given)	inconclusive [inhibitor, single point]	
O=[N+]([O-])c1ccccc1Nc1ccccc1[N+](=O)[O-]		inactive: -24%
N#Cc1ccc(COc2ccc(CCO)cc2-n2nc3ccccc3n2)cc1	inconclusive [inhibitor, single point]	
O=C(c1cccc(F)c1)N1CCC(N2CCOCC2)CC1	active: 5.8 µM	
COc1cccc(NC(=O)[C@H](CC(C)C)NC(=O)N2CCn3c2nc2ccccc23)c1	inconclusive [inhibitor, partial curve, poor fit]	
Cc1ccc(NC(=O)COC(=O)C2CC(=O)N(Cc3ccccc3)C2)cc1S(=O)(=O)N(C)C (stereo not given)		inactive: 14.7%
COc1ccccc1-c1nnc(NC(=O)c2ccc3c(c2)OCO3)s1	active: 2.31 µM	
CCn1nnc2cc(C(=O)Nc3cccc(C(F)(F)F)c3)ccc21		inactive: -3.43%
O=C(c1ccccc1Cl)c1c(O)c2ccccc2oc1=O	inconclusive [inhibitor, single point]	
CNC(=O)C1CC(=O)N(CCc2ccc(OC)cc2)C(=Nc2ccc(OC)cc2)S1 (stereo not given)	inconclusive [inhibitor, partial curve]	
O=C(CCSc1ccccc1)N1CCN(C(=O)c2ccco2)CC1		inactive: -9.83%
COc1ccc(Cl)cc1C(=O)NNC(=S)NC(=O)c1ccc(F)c(F)c1		inactive: -14.3%
CCOC(=O)C(NC(=O)c1ccccc1Cl)(Nc1sc2c(c1C(N)=O)CCC2)C(F)(F)F (stereo not given)	inconclusive [inhibitor, single point]	
O=C1CC(N2CCOCC2)C(=O)N1c1ccccc1Cl (stereo not given)	inconclusive [inhibitor, single point]	
COc1ccc(Br)cc1C1CC(=O)C(C)C(c2cc(Br)ccc2OC)N1 (stereo not given)		inactive: 1.39%
COc1cc2c(cc1OC)C(C)N(C(=O)c1cc3c(s1)-c1c(C)cccc1OC3)CC2 (stereo not given)	inconclusive [inhibitor, single point]	
COc1ccccc1OCc1nc(-c2ccc([N+](=O)[O-])cc2)no1	inconclusive [inhibitor, partial curve]	
